Some of the results follow. Rule as the data show it: active = 3.2 or more and inactive = the rest. Most of these values are background signal.
Key:
Assay in all cases: enrichment score (SH2-bound / input frequency) (ratio); bacterial display of known human phosphotyrosine sites (pTyr-Var adds point mutants) read by sequencing; higher = stronger binding; tyrosines were phosphorylated by kinases first
Conditions in all cases: peptide library: pTyr-Var
[1] = molecular target: SHP2 C-SH2 domain E139D
[2] = molecular target: SHP2 C-SH2 domain wild-type
[3] = molecular target: SHP2 N-SH2 domain L43F
[4] = molecular target: SHP2 N-SH2 domain T42A
[5] = molecular target: SHP2 N-SH2 domain T52S
[6] = molecular target: SHP2 N-SH2 domain wild-type

Measured: enrichment score
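Also: displayed peptides selected on beads carrying the immobilized SH2 domain, with library peptides lacking any tyrosine serving as negative controls.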

ALAHKHHGGGG [HBB_Y146_Y146H]
inactive: [1] 2.29 | [2] 1.89 | [3] 2.28 | [4] 1.63 | [5] 2.23 | [6] 1.69

PTTKTYFPHFY [HBA1_Y43_D48Y]
inactive: [1] 1.19 | [2] 1.04 | [3] 0.919 | [4] 0.959 | [5] 0.968 | [6] 1.16

RLLVVYTWTQR [HBB_Y36_P37T]
inactive: [1] 2.94 | [2] 2.52 | [3] 2.7 | [4] 2.21 | [5] 2.25 | [6] 2.09

PVEAAYQKVVA [HBB_Y131_Q128E]
inactive: [1] 0.856 | [2] 0.721 | [3] 1.04 | [4] 0.561 | [5] 1.01 | [6] 0.907

RLLVVYPWTER [HBB_Y36_Q40E]
inactive: [2] 3.19 | [4] 2.78 | [6] 3.06
active: [1] 3.76 | [3] 3.63 | [5] 3.54

DLAHKYHGGGG [HBB_Y146_A141D]
inactive: [1] 0.797 | [2] 0.583 | [3] 0.585 | [4] 0.583 | [5] 0.598 | [6] 0.656

QFQEKYKQMEQ [HCN4_Y531_V534M_YF]
inactive: [1] 1.2 | [2] 0.803 | [3] 0.869 | [4] 0.81 | [5] 0.736 | [6] 0.733

PVQAAYPKVVA [HBB_Y131_Q132P]
inactive: [1] 0.696 | [2] 0.72 | [3] 0.908 | [4] 0.577 | [5] 0.61 | [6] 0.995

RTTKTYFPHFD [HBA1_Y43_P38R]
inactive: [1] 1.36 | [2] 1.02 | [3] 1.08 | [4] 1.71 | [5] 1.14 | [6] 1.25

RLLVVYPSTQR [HBB_Y36_W38S]
inactive: [2] 2.65 | [3] 2.88 | [4] 2.6 | [5] 2.78 | [6] 2.51
active: [1] 3.26

RLLVFYPWTQR [HBB_Y36_V35F]
inactive: [2] 2.76 | [3] 2.92 | [4] 2.3 | [5] 3.06 | [6] 3.08
active: [1] 3.34

PVQAAYRKVVA [HBB_Y131_Q132R]
inactive: [1] 0.408 | [2] 0.466 | [3] 0.453 | [4] 0.319 | [5] 0.493 | [6] 0.71

RLLVVFPWTQR [HBB_Y36_Y36F]
inactive: [1] 1.77 | [2] 1.5 | [3] 1.2 | [4] 1.43 | [5] 1.6 | [6] 1.45

ALAHKYDGGGG [HBB_Y146_H147D]
inactive: [1] 0.88 | [2] 0.476 | [3] 0.292 | [4] 0.302 | [5] 0.383 | [6] 0.403

RLLVVYPWNQR [HBB_Y36_T39N]
inactive: [1] 1.76 | [2] 2.07 | [3] 1.52 | [4] 1.41 | [5] 1.76 | [6] 1.39

QFQEKYKQVEQ [HCN4_Y531_YF]
inactive: [1] 0.974 | [2] 0.86 | [3] 0.737 | [4] 0.646 | [5] 1.05 | [6] 0.796

PAQAAYQKVVA [HBB_Y131_V127A]
inactive: [1] 0.813 | [2] 0.815 | [3] 0.871 | [4] 0.704 | [5] 0.901 | [6] 1.11

QMQAAYQKAVA [HBD_Y131_V134A]
inactive: [1] 0.756 | [2] 0.677 | [3] 0.739 | [4] 0.637 | [5] 0.797 | [6] 0.573

PVQAAYQKLVA [HBB_Y131_V134L]
inactive: [1] 0.757 | [2] 0.903 | [3] 0.887 | [4] 0.707 | [5] 0.941 | [6] 0.839

PTTKTYFPQFD [HBA1_Y43_H46Q]
inactive: [1] 1.41 | [2] 0.753 | [3] 0.961 | [4] 0.696 | [5] 1.12 | [6] 0.914

APAHKYHGGGG [HBD_Y146_L142P]
inactive: [1] 1.42 | [2] 0.961 | [3] 1.16 | [4] 1.09 | [5] 1.15 | [6] 1.11

PVQAPYQKVVA [HBB_Y131_A130P]
inactive: [1] 0.755 | [2] 0.853 | [3] 0.896 | [4] 0.737 | [5] 1.04 | [6] 0.804

RPLVVYPWTQR [HBB_Y36_L32P]
inactive: [1] 0.601 | [2] 0.466 | [3] 0.542 | [4] 0.575 | [5] 0.599 | [6] 0.634

PGQAAYQKVVA [HBB_Y131_V127G]
inactive: [1] 0.728 | [2] 0.947 | [3] 0.818 | [4] 0.856 | [5] 0.675 | [6] 0.739

PTTMTYFPHFD [HBA1_Y43_K41M]
inactive: [1] 1.05 | [2] 0.753 | [3] 0.907 | [4] 0.836 | [5] 0.921 | [6] 1.1

RLLVIYPWTQR [HBG2_Y36_V35I]
inactive: [1] 2.6 | [2] 2.29 | [3] 1.79 | [4] 1.83 | [5] 2.62 | [6] 2.02

ALAHKYHGGGG [HBB_Y146]
inactive: [1] 0.439 | [2] 0.54 | [3] 0.548 | [4] 0.31 | [5] 0.45 | [6] 0.575

QYQEKYKQVEQ [HCN4_Y531]
inactive: [1] 0.519 | [2] 0.74 | [3] 0.543 | [4] 0.391 | [5] 0.606 | [6] 0.704

PVQAAYQKVVD [HBB_Y131_A136D]
inactive: [1] 0.681 | [2] 0.944 | [3] 0.914 | [4] 0.79 | [5] 0.742 | [6] 1.01

ALAHKYQGGGG [HBB_Y146_H147Q]
inactive: [1] 0.633 | [2] 1.03 | [3] 0.71 | [4] 0.642 | [5] 0.798 | [6] 0.409

ALAPKYHGGGG [HBB_Y146_H144P]
inactive: [1] 0.566 | [2] 0.473 | [3] 0.759 | [4] 0.603 | [5] 0.726 | [6] 0.674

QRIHDYYEHRY [HCN4_Y554]
inactive: [1] 1.62 | [2] 1.42 | [3] 1.56 | [4] 1.37 | [5] 1.68 | [6] 1.02

RLLVVYPWTQR [HBB_Y36]
inactive: [1] 2.35 | [2] 2.03 | [3] 2.18 | [4] 2.12 | [5] 2.57 | [6] 2.09

TTKGSYSLSVR [HCK_Y180]
inactive: [1] 0.862 | [2] 0.649 | [3] 0.798 | [4] 0.741 | [5] 0.796 | [6] 0.912

SLLVVYPWTQR [HBB_Y36_R31S]
inactive: [1] 3.07 | [2] 2.6 | [3] 2.57 | [4] 2.66 | [5] 2.68 | [6] 2.22

RLLVVYPWTKR [HBB_Y36_Q40K]
inactive: [1] 0.345 | [2] 0.553 | [3] 0.353 | [4] 0.257 | [5] 0.481 | [6] 0.371

RLLVVYSWTQR [HBB_Y36_P37S]
inactive: [1] 2.77 | [2] 2.76 | [3] 2.34 | [4] 2.43 | [5] 2.58 | [6] 2.55
